Results are given in words; binding and its absence hold for the method and conditions named. Binding seen in cells or lysates may run through a third protein.

Chains of the proteins cited; added tags and fusions are not shown.
UniProt P9WPE7: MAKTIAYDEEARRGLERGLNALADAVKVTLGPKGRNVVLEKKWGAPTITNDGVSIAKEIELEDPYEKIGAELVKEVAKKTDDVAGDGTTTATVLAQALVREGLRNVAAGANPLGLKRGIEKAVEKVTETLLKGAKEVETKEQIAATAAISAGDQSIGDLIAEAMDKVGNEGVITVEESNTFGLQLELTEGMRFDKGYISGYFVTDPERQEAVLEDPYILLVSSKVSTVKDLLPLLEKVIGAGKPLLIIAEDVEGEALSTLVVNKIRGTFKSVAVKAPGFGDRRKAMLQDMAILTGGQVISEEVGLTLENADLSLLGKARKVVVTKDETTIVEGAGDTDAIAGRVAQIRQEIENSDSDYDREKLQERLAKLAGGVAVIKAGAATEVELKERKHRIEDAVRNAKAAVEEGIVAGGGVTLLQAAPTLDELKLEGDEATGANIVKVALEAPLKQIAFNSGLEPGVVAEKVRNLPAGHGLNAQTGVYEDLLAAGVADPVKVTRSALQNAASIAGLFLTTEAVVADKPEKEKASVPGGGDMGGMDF
UniProt P9WGI1: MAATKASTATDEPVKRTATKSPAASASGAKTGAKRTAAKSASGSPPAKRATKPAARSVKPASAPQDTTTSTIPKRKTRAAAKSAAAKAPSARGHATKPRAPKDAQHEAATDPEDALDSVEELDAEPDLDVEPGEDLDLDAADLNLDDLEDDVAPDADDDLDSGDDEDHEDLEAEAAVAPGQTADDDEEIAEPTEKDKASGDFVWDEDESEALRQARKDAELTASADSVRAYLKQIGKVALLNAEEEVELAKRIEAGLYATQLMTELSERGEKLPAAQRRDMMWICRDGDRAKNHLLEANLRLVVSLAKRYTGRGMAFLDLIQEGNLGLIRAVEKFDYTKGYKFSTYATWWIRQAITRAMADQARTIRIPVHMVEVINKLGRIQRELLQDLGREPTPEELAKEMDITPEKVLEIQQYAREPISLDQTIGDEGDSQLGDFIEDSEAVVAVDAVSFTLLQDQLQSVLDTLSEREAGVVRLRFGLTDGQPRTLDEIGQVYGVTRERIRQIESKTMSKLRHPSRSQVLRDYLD

The assay has as its target Mtb GroEL2 (Rv0440, hsp65), M-PFC bait fusion (Mycobacterium tuberculosis H37Rv) (UniProt P9WPE7). The assay can be described thus: split reporter.

For the substance “Mtb SigA, M-PFC control fusion (from UniProt P9WGI1 1-528)”, the binding result is “no binding”.

The values are drawn from PMC4022732.
